The list shows a part of the results. Further columns of the screen follow, without active or inactive calls.
Biological target: GTPase KRas (Homo sapiens) (UniProt P01116)
Assay: Fragment capture on engineered cysteines, share of protein labelled (AID 2202238)
Parameters: protein at 5 µM with 500 µM competing thiol for 1.5 h
Settings: KRAS G12D cysteine mutants, disulfide tethering, MALDI-TOF labeling, stronger effect = higher value, fragment at 500 µM
[1] = measured here: G75C mutant labeling
[2] = measured here: H94C mutant labeling
[3] = measured here: I36C mutant labeling
[4] = measured here: L120C mutant labeling
[5] = measured here: M67C mutant labeling
[6] = measured here: M72C mutant labeling
[7] = measured here: N86C mutant labeling
[8] = measured here: P121C mutant labeling
[9] = measured here: S122C mutant labeling
[10] = measured here: S136C mutant labeling
[11] = measured here: G60C mutant labeling
[12] = measured here: N26C mutant labeling

Chain of UniProt P01116 (P01116 whole entry, looked up, the tested form may be a part): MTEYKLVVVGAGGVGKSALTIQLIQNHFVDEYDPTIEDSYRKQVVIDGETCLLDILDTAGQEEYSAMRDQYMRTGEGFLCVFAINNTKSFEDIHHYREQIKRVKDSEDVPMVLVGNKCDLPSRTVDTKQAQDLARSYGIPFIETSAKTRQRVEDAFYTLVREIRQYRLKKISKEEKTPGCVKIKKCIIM

| SMILES | percent labeling [1] [%] | percent labeling [2] [%] | percent labeling [3] [%] | percent labeling [4] [%] | percent labeling [5] [%] | percent labeling [6] [%] | percent labeling [7] [%] | percent labeling [8] [%] | percent labeling [9] [%] | percent labeling [10] [%] | percent labeling [11] [%] | percent labeling [12] [%] |
| --- | --- | --- | --- | --- | --- | --- | --- | --- | --- | --- | --- | --- |
| CN(CCCc1cc(-c2ccccc2)n(C)n1)C(=O)CCS | 17.1 | 50.4 | 37.1 | 29.6 | 47.2 | 36.2 | 24.7 | 30.4 | 28 | 63.4 | – | – |
| O=C(NCCS)C1CC(=O)N(Cc2ccc(F)cc2F)C1 (stereo unspecified) | 16.6 | 37.4 | 36.2 | 38.3 | 46.7 | 45 | 27.8 | 35.2 | 36.4 | 56.9 | 42.5 | 48.2 |
| Cc1nc2nc[nH]n2c(=O)c1CCC(=O)NCCS | 6.2 | 24.5 | 19.3 | 35.9 | 22.6 | 8 | 25 | 29 | 32.1 | 31.3 | 16.8 | 29.3 |
| O=C(CN1C(=O)NC(c2cccs2)(C2CC2)C1=O)NCCS (stereo unspecified) | 9.5 | 25.7 | 22.4 | 43.9 | 36 | 25.4 | 21.4 | 25.3 | 26.9 | 45 | 33.4 | 29.8 |
| O=C(COC(c1ccccc1)c1ccccc1)NCCS | 15.7 | 19.8 | 12.8 | 24.6 | 14.1 | 31.1 | 11.5 | 14.4 | 10.4 | 39.6 | 26.4 | 19.6 |
| CN1C(=O)CCc2cc(C(=O)NCCS)ccc21 | 24.6 | 33 | 26.5 | 38.6 | 37.1 | 63.1 | 24.5 | 26.7 | 28.1 | 48.1 | 43.3 | 50.9 |
| CN(C)C(C(=O)NCCS)c1ccc(Cl)cc1 (stereo unspecified) | 0 | 5.5 | 7.6 | 13.5 | 8.9 | 0 | 0 | 5.2 | 4 | 10.9 | 7.6 | 3.9 |
| O=C(NCCS)c1ccn(Cc2ccccc2)c1 | 18.4 | 18.2 | 11.8 | 24.2 | 23 | 33.9 | 13.4 | 15.4 | 15.5 | 30.1 | 30.1 | 28.9 |
| O=C(CCS)NCCn1c(=O)[nH]c2cccnc21 | 9.9 | 27.1 | 40.5 | 31.2 | 31.8 | 18.1 | 12.9 | 32.2 | 34.4 | 47.3 | – | – |
| O=C(NCCS)c1cccc2cnccc12 | 27.6 | 45.8 | 35.8 | 34.8 | 46.1 | 42 | 36.3 | 38.5 | 34.7 | 56.7 | 48 | 54.5 |
| Cc1nc(-c2c(C)noc2C)sc1C(=O)NCCS | 10.8 | 20 | 15.1 | 17.8 | 19.6 | 37.6 | 11.1 | 15.9 | 13.6 | 39 | 27 | 35.7 |
| O=C(NCCS)c1ccc(C(=O)N2CCOCC2)cc1 | 14.2 | 32.9 | 30.5 | 44.6 | 31.8 | 28.5 | 26.5 | 31.2 | 30 | 42.7 | 30.6 | 40.1 |
| Cn1cc(C(=O)NCCS)c(C(F)(F)F)c1 | 27.2 | 43.8 | 23.8 | 46.2 | 34.7 | 47.1 | 48.9 | 31.2 | 30.1 | 46.3 | 44.4 | 42.3 |
| O=C(Cn1cnc2ccc(Br)cc2c1=O)NCCS | 7.1 | 13 | 11.4 | 17 | 9.8 | 19.9 | 9.8 | 8.7 | 5.4 | 9 | 22.5 | 33.3 |
| O=C(CCS)Nc1cn(CCOCC(F)(F)F)nc1-c1ccccn1 | 9.8 | 10.9 | 9.1 | 10 | 12.2 | 26.8 | 4.8 | 10.4 | 9.4 | 14.5 | – | – |
| O=C(CCNC(=O)Nc1ccc(Br)cc1)NCCS | 4.5 | 19.3 | 6.2 | 6.1 | 7.8 | 9.6 | 5.2 | 5.6 | 3.2 | 9.6 | 18.6 | 24.5 |
| NC(=O)c1cn(C2CN(C(=O)CCS)C2)nn1 | 6.6 | 18.7 | 30.5 | 20.7 | 29.9 | 13.1 | 17.2 | 30.2 | 27.3 | 38.7 | – | – |
| Cc1c(Br)cc(C(=O)NCCS)c(=O)n1C | 21.8 | 33 | 24.2 | 34.5 | 37.7 | 73.4 | 20.4 | 21.3 | 21.4 | 48 | 47 | 37.8 |
| O=C(NCCS)c1nn(-c2cc(Cl)ccc2F)c2c1CCC2 | 14 | 14.4 | 6.6 | 11 | 6.6 | 34.6 | 5.5 | 8.7 | 4.2 | 9.7 | 19 | 16.8 |
| O=C(CCS)N1CCC2(CC1)Cc1ccccc1NC2=O | 20.2 | 37.3 | 54.3 | 40 | 54.8 | 40.4 | 28.6 | 33.5 | 31.5 | 73.2 | – | – |
| CCn1cc(-c2cc(C(F)(F)F)n(CCCNC(=O)CCS)n2)cn1 | 14.4 | 23.2 | 21.4 | 19.4 | 17.9 | 27.4 | 21 | 24.5 | 21.9 | 36.5 | – | – |
| O=C(CCS)NC1CCN(CCOc2ccc(Cl)cc2)CC1 | 16.2 | 34 | 52.1 | 22.4 | 39.4 | 22.9 | 25.7 | 26 | 18 | 41.9 | – | – |
| Cc1ccc(-n2ncc(NC(=O)CCS)c2C)cc1 | 11.6 | 31.1 | 22.7 | 29.3 | 27.2 | 39.7 | 18 | 25.9 | 27.3 | 40.4 | – | – |

| SMILES | percent labeling [1] [%] | percent labeling [2] [%] | percent labeling [3] [%] | percent labeling [4] [%] | percent labeling [5] [%] | percent labeling [6] [%] | percent labeling [7] [%] | percent labeling [8] [%] | percent labeling [9] [%] | percent labeling [10] [%] | percent labeling [11] [%] | percent labeling [12] [%] |
| --- | --- | --- | --- | --- | --- | --- | --- | --- | --- | --- | --- | --- |
| O=C(NCCS)C1(c2c(Cl)cccc2Cl)CCC1 | 20.7 | 27.2 | 15.9 | 27.8 | 20.4 | 58.3 | 16.2 | 19.8 | 13.8 | 26.2 | 55.6 | 28.2 |
| O=C(NCCS)c1ccc(CN2C(=O)CNC2=O)cc1 | 19.3 | 35.5 | 25.1 | 39.4 | 35 | 47.6 | 37.6 | 25.7 | 36.4 | 45.1 | 26.7 | 46.5 |
| O=C(NCCS)c1csc(-c2cccc3ccccc23)n1 | 9.1 | 13.7 | 8 | 12.3 | 11 | 39.8 | 12.2 | 12.4 | 6.3 | 12.6 | 21.1 | 24.7 |
| O=C(CCS)NC1CC(Cn2ccnn2)C1 (stereo unspecified) | 11.1 | 24.8 | 39.5 | 24.9 | 30.8 | 17.1 | 30.2 | 41.2 | 36.6 | 53.1 | – | – |
| O=C(NCCS)c1sc(N2CCOCC2)nc1Cl | 23.7 | 21.2 | 19.5 | 21.5 | 25.5 | 62.8 | 14.8 | 16.2 | 17.5 | 37.4 | 27 | 36.3 |
| Cc1c(C(=O)NCCS)nnn1-c1ccc(F)cc1 | 14.6 | 21.2 | 16.4 | 22.6 | 17.8 | 50.7 | 18.3 | 20.8 | 17.6 | 24.9 | 29.1 | 39.5 |
| O=C(NCCS)c1coc(-c2c(F)cccc2F)n1 | 13.9 | 20.2 | 16.2 | 31.2 | 18.9 | 42.6 | 16.2 | 26 | 17.7 | 28.8 | 24.4 | 29.5 |
| CC1(C)Cc2occc2CN(C(=O)CCS)C1 | 21.1 | 44.5 | 31.3 | 28.6 | 34.8 | 68.2 | 33.4 | 34.8 | 35.6 | 61.7 | – | – |
| O=C(CCS)N1CCC(c2c[nH]c3ccc(F)cc23)CC1 | 24.7 | 25 | 28.6 | 15.3 | 37.5 | 45.6 | 18.2 | 19.2 | 12.8 | 28.9 | – | – |
| COc1cc(CNC(=O)CCS)ccc1OCc1cccnc1 | 13.9 | 29.4 | 38.2 | 24.9 | 40.1 | 33 | 25.7 | 24.7 | 26.3 | 42.3 | – | – |
| O=C(NCCS)[C@]12CCC[C@H]1CN(Cc1ccccc1)C2 | 26.9 | 35.3 | 27.6 | 23.9 | 38.4 | 37 | 25.1 | 25.6 | 17.2 | 36.2 | 49.2 | 39.7 |
| CN(CC1CCCCC1)C(=O)C(C)(C)NC(=O)CCS | 13.5 | 45.3 | 40.5 | 34.4 | 42.7 | 33.2 | 34.9 | 38.6 | 35.9 | 61.5 | – | – |
| O=C(NCCS)C1CCN(C(=O)c2csc(-c3ccccc3)n2)CC1 | 13.6 | 20.2 | 16.3 | 13.6 | 33.3 | 27.1 | 14.8 | 15.2 | 49.9 | 22.7 | 25.9 | 30.9 |
| Cc1ccc(CNC(=O)CCS)c(-n2cc(Cl)cn2)n1 | 11.5 | 29.8 | 35 | 23.7 | 33 | 20.6 | 18 | 25.7 | 23.2 | 45 | – | – |
| O=C(NCCS)c1cnc(-c2ccccc2)nc1 | 8.9 | 7.4 | 7.2 | 8.6 | 6.7 | 25.5 | 4.6 | 11.3 | 7.7 | 15.8 | 8.8 | 18.8 |
| CCc1n[nH]c(=O)c(C(=O)NCCS)c1CC | 13.3 | 29.7 | 22.5 | 38.9 | 32 | 23.4 | 28.9 | 42.4 | 31.4 | 47.6 | 36 | 39.6 |
| Cc1ccc(C)c(Sc2ccc(NC(=O)CCS)cc2)c1 | 12.2 | 16 | 20.4 | 15.6 | 31.6 | 38 | 25 | 18.5 | 10.7 | 36.2 | – | – |
| O=C(CC1(Cn2cnnn2)CCCCC1)NCCS | 16.2 | 43.4 | 45.9 | 45.4 | 41.4 | 34.9 | 33 | 39.5 | 36.2 | 60.3 | 53.4 | 35.1 |
| O=C(CCS)NC1(Cc2cccc(Br)c2)CC1 | 14.2 | 43.2 | 30.8 | 18.5 | 37.1 | 53.2 | 21 | 29.6 | 24.6 | 49.3 | – | – |
| O=C(CCS)NCCc1ccc(O)cc1O | 16.8 | 34.9 | 43 | 29.7 | 37.4 | 36.3 | 36.4 | 32.3 | 36.9 | 49.3 | – | – |
| CC(C)(NC(=O)CCS)c1nccc(C(F)(F)F)n1 | 10.2 | 36.8 | 37.5 | 35.7 | 35.8 | 26.9 | 37.6 | 38.8 | 40.9 | 53.2 | – | – |
| O=C(NCCS)c1cc(Br)c2c(c1)OCCO2 | 21.2 | 18.7 | 12.1 | 14.5 | 13.1 | 37 | 12.7 | 13.1 | 9.3 | 19.4 | 40.7 | 29.7 |
| O=C(NCCS)c1nc(-c2cccc(C(F)(F)F)c2)cs1 | 20.9 | 18.8 | 9.6 | 8.6 | 7.5 | 47.7 | 10.6 | 16.4 | 5.6 | 12.9 | 27.7 | 20.3 |

— PubChem BioAssay AID2202238 (Ras Initiative Chemistry Research Team, Frederick National …, 2025)
